Results taken from the CheMixHub viscosity set.

Details: 101 kPa

Which viscosity (303.15 K) does the source give for `NC=O` here?
The viscosity was 2.918 ± 0.091 mPa·s [study A] and 2.903 ± 0.029 mPa·s [study B] and 2.941 ± 0.13 mPa·s [study C] and 3.18 ± 0.03 mPa·s [study D].

What about the viscosity (308.15 K) of the same molecule?
Its viscosity is 2.607 ± 0.081 mPa·s [study A] and 2.593 ± 0.069 mPa·s [study B] and 2.69 ± 0.07 mPa·s [study C] and 2.587 ± 0.026 mPa·s [study D] and 2.384 ± 0.11 mPa·s [study E].

And the viscosity (318.15 K)?
The viscosity was 2.096 ± 0.065 mPa·s [study A] and 2.043 ± 0.054 mPa·s [study B] and 2.099 ± 0.021 mPa·s [study C] and 2.49 ± 0.02 mPa·s [study D] and 1.951 ± 0.091 mPa·s [study E].

Which viscosity (298.15 K) does the source give for `CC(=O)[O-].CC[n+]1ccn(C)c1` here?
The viscosity was 128.4 ± 4.1 mPa·s [study A] and 126.3 ± 8.3 mPa·s [study B] and 140 ± 8.7 mPa·s [study C] and 132.9 ± 6 mPa·s [study D].

± gives the uncertainty stated by the source. A number of entries come with more than one value. They are shown here; other results are not. The source may hold further records. Values that stand side by side are repeats across runs, samples, wells, individuals or studies. What stands in brackets tells the records apart. Letters count within one entry.
